Data as given in publication PMC11057083.
These are yes or no findings as the source states them, for the method shown. Binding seen in cells or lysates may run through a third protein. Some results given as binding are weak or reduced against the parent protein; the word gives no strength. For some of these results: Tags and fused reporters may be left off the sequences shown.

Legend:
[1] = biological target: T1, OTU domain-containing 6A (OTUD6A), endogenous in HEK293 cells (human (endogenous in HEK293)) (UniProt Q7L8S5); assay: co-IP; endogenous proteins; HEK293 whole-cell lysates, IP with control IgG, anti-OTUD6A or anti-CDC6 antibody, Western blot
T1 sequence: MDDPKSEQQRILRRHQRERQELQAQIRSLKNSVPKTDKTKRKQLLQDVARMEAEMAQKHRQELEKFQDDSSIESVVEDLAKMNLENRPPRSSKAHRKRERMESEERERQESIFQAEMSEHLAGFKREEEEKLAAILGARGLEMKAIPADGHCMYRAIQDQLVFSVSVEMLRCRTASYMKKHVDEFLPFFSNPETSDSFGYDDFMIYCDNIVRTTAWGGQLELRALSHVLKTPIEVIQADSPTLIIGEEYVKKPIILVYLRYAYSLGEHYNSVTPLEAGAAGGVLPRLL

[2] = biological target: T2, cell division cycle 6 (CDC6), endogenous in HeLa cells (human (endogenous in HeLa)) (UniProt Q99741); assay: co-IP; endogenous proteins; HeLa cells synchronized at the G1/S boundary by a double-thymidine block, lysates collected at time points after release, IP with anti-CDC6 antibody, Western blot
T2 sequence: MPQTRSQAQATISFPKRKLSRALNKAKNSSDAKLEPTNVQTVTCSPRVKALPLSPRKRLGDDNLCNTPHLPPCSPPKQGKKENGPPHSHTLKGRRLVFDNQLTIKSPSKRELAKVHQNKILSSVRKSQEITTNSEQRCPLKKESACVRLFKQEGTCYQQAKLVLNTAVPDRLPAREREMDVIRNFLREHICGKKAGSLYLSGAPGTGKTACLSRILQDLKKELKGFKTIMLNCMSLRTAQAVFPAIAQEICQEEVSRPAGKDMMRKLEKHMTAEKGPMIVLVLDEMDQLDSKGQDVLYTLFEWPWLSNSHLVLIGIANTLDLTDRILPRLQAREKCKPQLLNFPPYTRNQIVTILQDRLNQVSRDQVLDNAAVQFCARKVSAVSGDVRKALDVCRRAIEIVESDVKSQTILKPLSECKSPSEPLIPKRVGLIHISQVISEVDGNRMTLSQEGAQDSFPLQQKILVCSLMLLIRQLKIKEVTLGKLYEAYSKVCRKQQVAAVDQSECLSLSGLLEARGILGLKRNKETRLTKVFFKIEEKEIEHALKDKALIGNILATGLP

[3] = biological target: T3, cell division cycle 6 (CDC6), endogenous in HEK293 cells (human (endogenous in HEK293)) (UniProt Q99741); assay: co-IP; endogenous proteins; HEK293 whole-cell lysates, IP with control IgG, anti-OTUD6A or anti-CDC6 antibody, Western blot
T3 sequence: T2 sequence

Flag-OTUD6A (human) = biological target: T4, Flag-OTUD6A (human) (UniProt Q7L8S5); assay: co-IP; HEK293 cells transfected with Flag-OTUD6A constructs and HA-CDC6 for 24 h; whole-cell lysates, IP with anti-Flag antibody (reverse IP in Supplementary Fig. 2e, f), Western blot; in one panel cells treated with HU (2.5 mM) or DMSO for 24 h
T4 sequence: T1 sequence

[4] = biological target: T5, Flag-tagged OTUD6A-C-terminal (129-288 aa) (UniProt Q7L8S5); assay: as above
T5 sequence: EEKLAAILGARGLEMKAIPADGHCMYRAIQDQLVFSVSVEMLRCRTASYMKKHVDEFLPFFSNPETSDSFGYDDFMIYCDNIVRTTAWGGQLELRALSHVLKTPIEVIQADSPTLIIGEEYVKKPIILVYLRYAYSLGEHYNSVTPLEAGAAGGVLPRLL

[5] = biological target: T6, Flag-tagged OTUD6A-N-terminal (1-145 aa) (UniProt Q7L8S5); assay: as above
T6 sequence: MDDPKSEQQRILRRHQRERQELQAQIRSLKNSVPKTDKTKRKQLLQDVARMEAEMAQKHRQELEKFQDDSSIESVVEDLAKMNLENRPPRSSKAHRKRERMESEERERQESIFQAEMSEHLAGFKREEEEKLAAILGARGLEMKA

HA-CDC6 = biological target: T7, HA-CDC6 (UniProt Q99741); assay: as above
T7 sequence: T2 sequence

HA-YFP-C terminus-CDC6 = biological target: T8, HA-YFP-C terminus-CDC6 (UniProt Q99741); assay: split reporter; BiFC with YN-OTUD6A and YC-CDC6 in cells, confocal images
T8 sequence: T2 sequence

[6] = biological target: T9, GST-tagged OTUD6A-N-terminal (1-145 aa) (UniProt Q7L8S5); assay: pull-down; GST pull-down with GST-tagged OTUD6A constructs; Coomassie brilliant blue staining of the GST proteins; source of CDC6 not shown
T9 sequence: T6 sequence

[7] = biological target: T10, GST-tagged full-length OTUD6A (UniProt Q7L8S5); assay: as above
T10 sequence: T1 sequence

B1: cell division cycle 6 (CDC6), endogenous in HEK293 cells (protein, UniProt Q99741 1-560)
chain: T2 sequence
[1]
  binding: binds

B2: OTU domain-containing 6A (OTUD6A), endogenous in HeLa cells (enzyme, UniProt Q7L8S5 1-288)
chain: T1 sequence
[2]
  binding: binds

B3: OTU domain-containing 6A (OTUD6A), endogenous in HEK293 cells (enzyme, UniProt Q7L8S5 1-288)
chain: T1 sequence
[3]
  binding: binds

B4: HA-CDC6 (protein, UniProt Q99741 1-560)
chain: T2 sequence
Flag-OTUD6A (human)
  binding: binds
[4]
  binding: no binding
[5]
  binding: binds

B5: Flag-OTUD6A (enzyme, UniProt Q7L8S5 1-288)
chain: T1 sequence
HA-CDC6
  binding: binds

B6: Flag-YFP-N terminus-OTUD6A (enzyme, UniProt Q7L8S5 1-288)
chain: T1 sequence
HA-YFP-C terminus-CDC6
  binding: binds

B7: CDC6 of the GST pull-down assay (protein, UniProt Q99741 1-560)
chain: T2 sequence
[6]
  binding: binds
[7]
  binding: binds
